Data reported in the supplement of paper PMC12297408.
Counter-ions that a name gives are not always drawn. Hit rate of the full screen: of about 1,300 compounds, about 40 (3%) showed activity. This is one part of the list.

Tested on: Plasmodium falciparum NF54/iGP1_RE9H ulg8 stage V gametocytes
Assay: gametocyte viability (luciferase signal relative to DMSO control) (% of DMSO control); higher = less gametocytocidal activity, active = 50 or less
Conditions: exposure time: 72 h
In short: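 NF54/iGP1_RE9Hulg8 stage V gametocytes (day 12; ~2.5% gametocytemia, 3% hematocrit) in medium with 0.5% Albumax II were added to 96-well plates of nanolitre-spotted compounds (10 mM DMSO stocks), giving 10 µM or 1 µM, one well each. Plates were incubated 72 h at 37 °C. Then 90 µl was mixed with 10 µl D-luciferin (30 mg/ml) and luminescence was read on an IVIS Lumina II. Viability is relative to the mean of plate DMSO vehicle controls.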

Row | Structure (SMILES) | gametocyte viability (concentration: 1 µM) | gametocyte viability (concentration: 10 µM)
1 | NCC(CC(=O)O)c1ccc(Cl)cc1 (racemic) [Baclofen (R,S)] | inactive: 89.5 | inactive: 81.8
2 | C#C[C@]1(O)CC[C@H]2[C@@H]3CCC4=CC(=O)CCC4=C3C=C[C@@]21CC [Gestrinone] | inactive: 86.6 | inactive: 74.2
3 | CN1[C@@H]2C[C@@H](OC(=O)[C@H](CO)c3ccccc3)C[C@H]1[C@@H]1O[C@@H]12 [Scopolamine hydrochloride] | inactive: 95.7 | inactive: 94.5
4 | CN1CCC2(C)c3cc(O)ccc3N(C)C12 (single isomer, unassigned; (-)) [(-)-Eseroline fumarate salt] | inactive: 74.2 | active: 44.8
5 | CC(NC(C)(C)C)C(=O)c1cccc(Cl)c1 (stereo unspecified) [Bupropion hydrochloride] | inactive: 88.1 | inactive: 88.6
6 | CN(C)[C@@H]1C(=O)C(C(N)=O)=C(O)[C@@]2(O)C(=O)C3=C(O)c4c(O)cccc4[C@@](C)(O)[C@H]3C[C@@H]12 [Tetracycline hydrochloride] | inactive: 93 | inactive: 90.3
7 | CN[C@@H]1[C@@H](O)[C@@H](O[C@@H]2[C@@H](O)[C@H](O[C@H]3O[C@H](CN)CC[C@H]3N)[C@@H](N)C[C@H]2N)OC[C@]1(C)O.CN[C@@H]1[C@@H](O)[C@@H](O[C@@H]2[C@@H](O)[C@H](O[C@H]3O[C@H]([C@@H](C)N)CC[C@H]3N)[C@@H](N)C[C@H]2N)OC[C@]1(C)O.CN[C@@H]1[C@@H](O)[C@@H](O[C@@H]2[C@@H](O)[C@H](O[C@H]3O[C@H]([C@@H](C)NC)CC[C@H]3N)[C@@H](N)C[C@H]2N)OC[C@]1(C)O [Gentamicine sulfate] | inactive: 90.6 | inactive: 99.8
8 | O=C1CC[C@@]2(O)[C@H]3Cc4ccc(O)c5c4[C@@]2(CCN3CC2CC2)[C@H]1O5 [Naltrexone hydrochloride dihydrate] | inactive: 93.5 | inactive: 91.9
9 | CC(=O)O[C@H]1C[C@@H]2CC[C@@H]3[C@H](CC[C@@]4(C)[C@H]3C[C@H]([N+]3(C)CCCCC3)[C@@H]4OC(C)=O)[C@@]2(C)C[C@@H]1[N+]1(C)CCCCC1 [Pancuronium bromide] | inactive: 83.1 | inactive: 82.2
10 | c1ccc2c(c1)Nc1ccccc1S2 [Phenothiazine] | inactive: 79.5 | inactive: 81
11 | O=c1c2ccccc2[se]n1-c1ccccc1 [Ebselen] | inactive: 81.8 | inactive: 89.4
12 | C[C@]12CCC(=O)C=C1C=C[C@@H]1[C@@H]2CC[C@@]2(C)[C@H]1CC[C@@]2(O)CCC(=O)O [Canrenoic acid potassium salt] | inactive: 83.5 | inactive: 82.3
13 | C(#CCN1CCCC1)CN1CCCC1 [Tremorine dihydrochloride] | inactive: 91.5 | inactive: 94.7
14 | C=CCN1CC[C@]23c4c5ccc(O)c4O[C@H]2C(=O)CC[C@@]3(O)[C@H]1C5 [Naloxone hydrochloride] | inactive: 86.4 | inactive: 84.5
15 | CCCC(C)C1(CC)C(=O)NC(=O)NC1=O (stereo unspecified) [Pentobarbital] | inactive: 98.2 | inactive: 91.6
16 | CN[C@@H]1C[C@@H](c2ccc(Cl)c(Cl)c2)c2ccccc21 [Indatraline hydrochloride] | inactive: 85.6 | inactive: 51.6
17 | CN1[C@@H]2CC[C@H]1C[C@@H](OC(=O)[C@H](CO)c1ccccc1)C2 [Hyoscyamine (L)] | inactive: 86.7 | inactive: 91.7
18 | CC(C)N(CCC(C(N)=O)(c1ccccc1)c1ccccn1)C(C)C (stereo unspecified) [Disopyramide] | inactive: 87 | inactive: 90.6
19 | C[C@H](N)[C@H](O)c1ccc(O)c(O)c1 [Levonordefrin] | inactive: 89 | inactive: 93.9
20 | O=[N+]([O-])O[C@@H]1CO[C@H]2[C@@H]1OC[C@@H]2O [Isosorbide mononitrate] | inactive: 94.9 | inactive: 98.5
21 | C[C@]12CC[C@H]3[C@@H](CCC4=CC(=O)CC[C@@H]43)[C@@H]1CC[C@@H]2O [Nandrolone] | inactive: 90.9 | inactive: 74
22 | COc1ccc(CN2CCNCC2)c(OC)c1OC [Trimetazidine dihydrochloride] | inactive: 84.5 | inactive: 87.6
23 | S=C(NC1CCCCC1)N1CCC(c2cnc[nH]2)CC1 [Thioperamide maleate] | inactive: 91.6 | inactive: 79.7
24 | CC(C)CC(N(C)C)C1(c2ccc(Cl)cc2)CCC1 (stereo unspecified) [Sibutramine HCl] | inactive: 93.7 | inactive: 94.8
25 | O=c1[nH]c2ccccc2n1CCCN1CCC(n2c(=O)[nH]c3cc(Cl)ccc32)CC1 [Domperidone] | inactive: 83.2 | inactive: 75
26 | CC(C)[N+](C)(CCC(C(N)=O)(c1ccccc1)c1ccccc1)C(C)C [Isopropamide iodide] | inactive: 82.4 | inactive: 90.3
27 | C#C[C@]1(O)CC[C@H]2[C@@H]3CCC4=CC(=O)CC[C@]4(C)[C@H]3CC[C@@]21C [Ethisterone] | inactive: 96 | inactive: 96.1

Row | Structure (SMILES) | gametocyte viability (concentration: 1 µM) | gametocyte viability (concentration: 10 µM)
28 | CNCC(O)c1ccc(O)cc1 (racemic) [(+,-)-Synephrine] | inactive: 80.4 | inactive: 84
29 | C[C@]12CC[C@@H](O)C[C@@H]1CC[C@@H]1[C@@H]2CC[C@]2(C)C(=O)CC[C@@H]12 [Androsterone] | inactive: 89 | inactive: 85.4
30 | C=CC[C@]1(O)CC[C@H]2[C@@H]3CCC4=CC(=O)CCC4=C3C=C[C@@]21C [Altrenogest] | inactive: 56.8 | active: 33.1
31 | CC(Cc1ccc(O)cc1)NCC(O)c1cc(O)cc(O)c1 (stereo unspecified) [Fenoterol hydrobromide] | inactive: 79.6 | inactive: 89.2
32 | C1CCc2nnnn2CC1 [Pentylenetetrazole] | inactive: 80.8 | inactive: 82.8
33 | COc1ccc2c(c1)[C@]13CCCC[C@@H]1[C@H](C2)N(C)CC3 [Dextromethorphan hydrobromide monohydrate] | inactive: 76.5 | inactive: 84.7
34 | CCN[C@@H](C)Cc1cccc(C(F)(F)F)c1 [Dexfenfluramine hydrochloride] | inactive: 95.2 | inactive: 90.6
35 | CC[C@@H](C(N)=O)N1CCCC1=O [Levetiracetam] | inactive: 83.8 | inactive: 85.3
36 | COc1ccc(C(=O)N2CCCC2=O)cc1 [Aniracetam] | inactive: 80.6 | inactive: 85.7
37 | C[C@]12CCC(=O)C=C1CC[C@@H]1[C@@H]2C(=O)C[C@]2(C)C(=O)CC[C@@H]12 [Adrenosterone] | inactive: 94.8 | inactive: 94.5
38 | C[N+]1(C)CCOC(O)(c2ccc(-c3ccc(C4(O)C[N+](C)(C)CCO4)cc3)cc2)C1 (stereo unspecified) [Hemicholinium bromide] | inactive: 93.8 | inactive: 92.6
39 | CCCN1C[C@H](CSC)C[C@@H]2c3cccc4[nH]cc(c34)C[C@H]21 [Pergolide mesylate] | inactive: 78.2 | inactive: 82.3
40 | COc1ccc(CCN)cc1OC [Homoveratrylamine] | inactive: 84.2 | inactive: 78.3
41 | c1ccc2nc(N3CCNCC3)ccc2c1 [Quipazine dimaleate salt] | inactive: 90.4 | inactive: 71.9
42 | C[N+](C)(C)CCCCCCCCCC[N+](C)(C)C [Decamethonium bromide] | inactive: 90.1 | inactive: 82.8
43 | CN1C[C@H](C(=O)N[C@]2(C)O[C@@]3(O)[C@@H]4CCCN4C(=O)[C@H](Cc4ccccc4)N3C2=O)C[C@@H]2c3cccc4[nH]cc(c34)C[C@H]21 [Dihydroergotamine tartrate] | inactive: 66.8 | active: 42.4
44 | C[N+]1(C)[C@@H]2CC[C@H]1C[C@@H](OC(=O)C(CO)c1ccccc1)C2 (stereo partly specified) [Methylatropine nitrate] | inactive: 81.3 | inactive: 90.8
45 | CC(CCc1ccccc1)NC(C)C(O)c1ccc(O)cc1 (stereo unspecified) [Nylidrin] | inactive: 97.7 | inactive: 97.8
46 | COc1cccc(C2(O)CCCCC2CN(C)C)c1 (stereo unspecified) [Tramadol hydrochloride] | inactive: 80.4 | inactive: 88.2
47 | CC(=O)OC1CN2CCC1CC2 (stereo unspecified) [Aceclidine Hydrochloride] | inactive: 82.8 | inactive: 86.9
48 | CCCC[N+]1(C)[C@@H]2CC(OC(=O)[C@H](CO)c3ccccc3)C[C@H]1[C@@H]1O[C@@H]12 (stereo partly specified) [Butylscopolammonium (n-) bromide] | inactive: 93.4 | inactive: 98.4
49 | CN(C)[C@@H]1C(=O)C(C(N)=O)=C(O)[C@@]2(O)C(=O)C3=C(O)c4c(O)ccc(Cl)c4[C@@](C)(O)[C@H]3C[C@@H]12 [Chlortetracycline hydrochloride] | inactive: 88.2 | inactive: 88.7
50 | CC[C@@]1(O)C(=O)OCc2c1cc1n(c2=O)Cc2cc3ccccc3nc2-1 [Camptothecine (S,+)] | inactive: 94.8 | inactive: 97.4
51 | CCC(=O)O[C@@](Cc1ccccc1)(c1ccccc1)[C@@H](C)CN(C)C [Levopropoxyphene napsylate] | inactive: 89.4 | inactive: 85
52 | CC(C)(C)NCC(O)c1cc(Cl)c(N)c(Cl)c1 (stereo unspecified) [Clenbuterol hydrochloride] | inactive: 85.7 | inactive: 83.7
53 | Fc1ccc(C(OCCN2CCN(CCCc3ccccc3)CC2)c2ccc(F)cc2)cc1 | inactive: 81.5 | inactive: 86
